Variants at the background level are over-represented here.
B1: TPR 5TU (parent)
chain: GGAUCUUCUCGAUCUAACAAAAAAGACAAAUCUGCCACAAAGCUUGAGAGCAUCUUCGGAUGCAGAGGCGGCAGCCUUCGGUGGCGCGAUAGCGCCAACGUUCUCAACUAUGACACGCAAAACGCGUGCUCCGUUGAAUGGAGUUUAUCAUG

Variants of: B1
Assay: polymerase ribozyme fitness, log enrichment relative to wild type (log ratio); higher = more active; in vitro selection for triplet polymerase activity
Procedure, shortened: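 A single round of triplicate in vitro selection, including frozen incubation at −7 °C, was applied to PCR-built, transcribed mutant libraries of each subunit of a heterodimeric triplet polymerase ribozyme. Illumina sequencing of input and output libraries retained genotypes with ≥10 input reads and ≥1 read per output. Fitness is the base-2 logarithm of genotype enrichment divided by wild-type enrichment, from inverse-variance-weighted replicate averages.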

Row | Variant | polymerase ribozyme fitness (log ratio)
1 | GGAUCUUCUCGAUCUAACAAAAGAGACGAAUCUGCCAAAAAGCUUCAGAGCAUCUUCGGAUGCAGAGGCGGCAGCCUUCGGUGGUGCGAUAGCGCCAACGUUCUCAACUAUGACACGCAAAACGCGUGCUCCGUUGAAUGGAGUUUAUCAUG | ≤ -4.2
2 | GGAUCUUCUCGAUCUAACAAAACAGACAAAUCUGCAACAAAGCUUGAGAGCAUCUUCGGAUGCAGAGGCGGCAGCCUUCGGUGGCGCGAUAGCGCCAACGUUCUCAACUAUGACACGCAAAACGCGUGCUCCGUUGAAUGGAGUUUAUCAUG | ≤ -4.2
3 | GGAUCUUCUCGAUCUAACAAAACAAACAAACCUGCCACAAAGCUUGAGAUCAUCUUCGGAUGCAGAGGCGGCAGGCUUCGGUGGCGCGAUAACGCCAAGGUUCUCAACUAUGACACGCAAAACGCGUGCUCCGUUGAAUGGAGUUUAUCAUG | ≤ -4.2
4 | GGAUCUUCUCGAUCUAACAAAACAGACAAACCUGCCACAAAGCUUGAGAGCAUCUUCGGAUGCAGAGGCGGCAGCCUUCGGUGGCGCGAUAGCGCCAAUGUUCUCAACUAUGACACGCAAAAUGCGUGCUCCGCUGAAUGGAGUUUAUCAUG | ≤ -4.2
5 | GGAUCUUCUCGAUCUAACAAAACAGACAAAUCUGCCACAAAGCUUGAGAGCAUCAUCCGAUGCAGAGGCGGCAGCCUUCGGUGGCGCGAUAGCGCCAACGUUCUCAACUAUGACACGCAAAACGCGUGCUCCGUUGAAUGGAGUUUAUCAUG | ≤ -4.2
6 | GGAUCUUCUCGAUCUAACAAAACAGACAAAUCUGCCAAAAAGCUCGAGAGCAUAUUCGGAUGCAGAGGCGGCAGCCUUCGGUGGCGCGAUUGCGCCAACGUUCUCAACUAUGACACGCAAAACGCGUGCUCCGUUGAAUUGAGUUUAUCAUG | ≤ -4.2
7 | GGAUCUUCUCGAUCUAACAAAACAGACAAAUCUGCCACAAAGAUUGAGAGCUUCUUCGGAUGCAGAGGCGGCAGCCUUCGGUGGCGCGAUAGCGCCAACGUUCUCAACUAUGACACGCCAAACGCGUGCUCCGUGGAAAAGGGUUUAUCAUG | ≤ -4.2
8 | GGAUCUUCUCGAUCUAACAAAAGGGACAAAUCUGCAACAUAGCUUGAGAGCAUAUUCGGAUGCGGAGGCGGCAGCCUUCGGGGGCGCGAUAGGGCCAACGUUCUCAACUAUGACACGCAAAACGCGUGCUCCGUUGAAUGGAGUUUAUCAUG | ≤ -4.2
9 | GGAUCUUCUCGAUCUAACAAAACAGACAAAUCUGCCACAAAGCUUGAGAGCAUCUUCGGAUGCAGAGGCGGCAGCCUUGGGUGGCGUGAUAGCGCCAACGUUCUCAACUAUGACACGCAAAACGCGUGCUCCGUUGAAUGGAGUUUAUCAUG | ≤ -4.2
10 | GGAUCUUCUCGAUCUAACAAAACAGACAAAUCUGCCACAAAGCUUGAGAGCAAUUUCGGAUGCAGACGCGGCAGCCUUCGUUGGGGCGAUAGCGCCAACGUUCUCAACUAUGACACGCAAAACGCGUACUCCGUUGAAUGGAGUUUAUCAUG | ≤ -4.2
11 | GGAUCUUCUCGAUCUAACAAAACAGACAAAUCUGCCACAAAGCUUGAGAGCAUCUGCGGAUGCAGAGGCGGCAGCCUUCGGAGGCGCGAUAGCGCCAACGUUCUCAACUAUGACACGCAAAACGAGUGCUCCGUUGAAGGGAGUUUAUCAUG | ≤ -4.2
12 | GGAUCUUCUCGAUCUAACAAAACAGACAAAUCUGCCACAAAGCUUGAGAGCAUCUUCGGAUGCAGAGGCGGCAGCCUUCGGUGGCGCUAUAGCGCCAACGUUCUCAACUAUGACACGCAAAACGCGUGCUCCGUUGAAUGGAGGUUAUCAUG | ≤ -4.2
13 | GGAUCUUCUCGAUCUAACAAAACAGACAAAUCUGCCACAAAGCUUGAGAGCAUGUUUGGAUGCAGAGGCGGCAGCCUUCGGUGGCGCGAUAGGGCCAACGCUCUAAACUAUGACACGCAAAACUCGUGCUCCGUUGAAUGAAGUUUAUCAUG | ≤ -4.2
14 | GGAUCUUCUCGAUCUAACAAAACAGACAAACCUGCCACAAAGCUUGAGAGCAUCUUCGGAUGAAGAGGCAGCAGCCUUCGGUGGCGCGAUAGCGUCAACGUUCUCAACUAUGACACGCAAAACGCGUGCUCCGUUAAAUGGAGUUUAUCAUG | ≤ -4.2
15 | GGAUCUUCUCGAUCUAACAAAAGAGACAAAUCUGCCACAAAGCUUGAGGGAAUCUUCGGAUGCAGAGGCAGCAGCCUUCGGUGGCGCGAUAGCGCCAACGUUCUCAACUAUGACACGCAAAACGCGUGCUCCGUUAAAUGGAGUUUAUCAUG | ≤ -4.2
16 | GGAUCUUCUCGAUCUAACAAAACAGACAAAUCUGCCACAAAGCUUUAGAGCAUCUACGGAUGCCGAGGCGGCAGCCUUCUGUGGCGCGAUAGCGCCAAAGUUCUCAACUAUGACAGGCAAUACGCGUGCUCCGUUGAAUGGAGUUUAUCAUG | ≤ -4.2
17 | GGAUCUUCUCGAUCUAACAAAACAGACAAAUCUGCCACAAAGCUUGAGAGCAUCUUCGGAUGCAGAGGCGGCAGCCUUCGGUGGCGCGAUAGAGCCAACGUUCUCAACUAUGACACGCAAAACGCGUGCUCCGUUGAAUGGAGUUUAUCAUG | -3.87
18 | GGAUCUUCUCGAUCUAACAAAACAGACAAAUCUGCCACAAAGCUUGAGAGCAUCUUCGGAUGUGGAGGCGGCAGCCUUCGGUCGCGCGAGAGCGCCAACGUUCUCAACUAUGACAAGCAAAACGCGUGCUCCGUUGAAUGGAGUUUAUCAUG | ≤ -4.2
19 | GGAUCUUCUCGAUCUAACAAAAGAGACAAAUCUGCCACAAAGCUUGAGAGCAUCUUCGGAUGCGGAGGCGGCAGCCUUCGAUGGCGCGAUAGCGCCAACGUUCUCAAAUAUGACACGCAAAACUCGUGCUCCGUUGAAUGGAUUUUAUCAUG | ≤ -4.2

Reference: the RNAGym collection of RNA variant scans (doi:10.1073/pnas.2313332121)
